Paper PMC4336329 (PLoS ONE, 2015)
Among all 310,000 compounds or so, about 14,000 (4.5%) showed an effect of 50% or more. Effects have a minus sign here. This is one part of the list.

biological target: human ether-à-go-go-related gene (hERG) potassium channel (human, UniProt Q12809); test: primary screen, population patch clamp on CHO cells stably expressing hERG
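Note: peak tail current of the secondary pulse compared with the same well before compound.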

Sequence of human ether-à-go-go-related gene (hERG) potassium channel (Q12809 whole entry, looked up): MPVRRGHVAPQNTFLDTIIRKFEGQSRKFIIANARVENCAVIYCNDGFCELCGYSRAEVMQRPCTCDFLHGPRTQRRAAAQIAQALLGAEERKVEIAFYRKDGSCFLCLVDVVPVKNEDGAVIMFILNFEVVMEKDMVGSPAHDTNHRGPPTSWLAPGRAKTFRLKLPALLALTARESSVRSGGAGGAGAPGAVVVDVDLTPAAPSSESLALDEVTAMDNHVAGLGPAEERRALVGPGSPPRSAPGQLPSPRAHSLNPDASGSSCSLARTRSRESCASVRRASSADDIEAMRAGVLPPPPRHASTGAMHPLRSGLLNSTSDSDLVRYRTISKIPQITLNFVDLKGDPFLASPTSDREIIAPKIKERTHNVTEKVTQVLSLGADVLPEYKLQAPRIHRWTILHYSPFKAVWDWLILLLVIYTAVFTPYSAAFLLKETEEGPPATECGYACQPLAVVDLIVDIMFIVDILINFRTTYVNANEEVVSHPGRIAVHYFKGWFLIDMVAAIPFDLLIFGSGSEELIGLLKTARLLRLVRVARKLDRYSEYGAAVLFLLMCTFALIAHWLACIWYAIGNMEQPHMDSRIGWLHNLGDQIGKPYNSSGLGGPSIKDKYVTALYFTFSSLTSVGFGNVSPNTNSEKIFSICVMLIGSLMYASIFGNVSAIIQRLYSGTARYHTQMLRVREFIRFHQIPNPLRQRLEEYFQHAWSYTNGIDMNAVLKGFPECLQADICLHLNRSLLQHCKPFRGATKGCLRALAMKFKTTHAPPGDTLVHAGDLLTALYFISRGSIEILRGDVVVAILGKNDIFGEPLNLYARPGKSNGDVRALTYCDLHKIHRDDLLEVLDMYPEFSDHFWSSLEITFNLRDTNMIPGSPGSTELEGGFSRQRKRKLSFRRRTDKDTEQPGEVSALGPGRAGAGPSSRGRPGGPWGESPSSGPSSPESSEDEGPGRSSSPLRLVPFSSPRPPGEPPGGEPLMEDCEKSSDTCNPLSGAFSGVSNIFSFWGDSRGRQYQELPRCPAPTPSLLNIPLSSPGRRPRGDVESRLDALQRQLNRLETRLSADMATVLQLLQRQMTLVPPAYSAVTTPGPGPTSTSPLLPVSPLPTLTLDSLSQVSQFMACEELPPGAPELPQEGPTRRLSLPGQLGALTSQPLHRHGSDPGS

Row | SMILES | hERG current change (%, negative = inhibition) at 10uM
1 | c1ccc(-c2nnc(-c3c[nH]c4ccccc34)nc2-c2ccccc2)cc1 | 2.71%
2 | O=C(CN1CCN(c2nc(-c3ccc(Cl)cc3)cs2)CC1)NCc1ccco1 | -42.4%
3 | Cc1cccc2c(=O)c(C(=O)NCc3ccc(F)cc3)c[nH]c12 | 5.04%
4 | Cc1ccc(COC(=O)CCc2nc3ccccc3c(=O)[nH]2)cc1 | -13.3%
5 | Cc1ccc2cc(NC(=O)c3ccccc3)ccc2n1 | 5.36%
6 | CNC(=O)c1cnn(-c2nc(-c3ccc(OC)cc3)cs2)c1C(F)(F)F | 18.8%
7 | CN(CC(=O)Nc1cccnc1)S(=O)(=O)c1ccccc1 | 1.6%
8 | CCc1c(C)nc(N)c(C#N)c1-c1ccccc1 | 14.7%
9 | O=C(O)C1CC=CCC1C(=O)N1CCc2ccccc21 (centres unmarked) | 18.3%
10 | O=C(COC(=O)CNC(=O)c1cccc([N+](=O)[O-])c1)NCc1ccco1 | -7.06%
11 | COc1ccc(/C=C(\NC(=O)c2ccco2)C(=O)NC(Cc2ccccc2)C(=O)O)cc1 (centres unmarked) | 27.7%
12 | Cc1ccc(C(=O)N/C(=C\c2cccs2)C(=O)NCc2ccncc2)cc1 | -52.9%
13 | COc1ccc(-n2c(C)cc(/C=C3\SC(=S)NC3=O)c2C)cc1 | 11.2%
14 | Cc1cc[n+](-c2nc3ccccc3nc2[N-]S(=O)(=O)c2cccs2)cc1C | -1.5%
15 | CC1CCCN(C(=O)c2ccc3c(=O)n(Cc4ccc5c(c4)OCO5)c(=S)[nH]c3c2)C1 (centres unmarked) | 1.16%
16 | O=C(c1cccc2c1-c1ccccc1/C2=N/O)N1CCCCC1 | -24.4%
17 | CC(=O)Nc1ccc(N(CC(=O)NC2CCCC2)C(=O)CCC(=O)Nc2cc(C)on2)cc1 | 27.2%
18 | O=C(NC1CCCCC1)c1ccccc1NC(=S)NC(=O)C1CC1 | 33.4%
19 | COC(=O)[C@@H]1CC(O)CN1C(=O)C12CC3CC(CC(C3)C1)C2 (some centres unmarked) | 10.4%

Row | SMILES | hERG current change (%, negative = inhibition) at 10uM
20 | CC1CC(NC(=O)c2cc3c(=O)n4ccccc4nc3n2C)CC(C)(C)C1 (centres unmarked) | -2.43%
21 | O=C(CN(Cc1ccc(F)cc1)C(=O)CNS(=O)(=O)c1ccccc1)NCC1CCCO1 (centres unmarked) | 11.8%
22 | COc1cccc(OC)c1OCCNCC1COc2ccccc2O1.Cl (centres unmarked) | -22.5%
23 | O=C1NC2(CCCCCC2)Oc2ccccc21 | -18.7%
24 | CCCCN1C(=O)/C(=C/c2ccc(N3CCCCCC3)cc2)C(=O)NC1=S | -22.9%
25 | COc1ccc(OCC(=O)Nc2ccccc2O)cc1 | -12.5%
26 | CCOC(=O)N1CCN(S(=O)(=O)CCNC(=O)c2ccc(OC)cc2)CC1 | -21.6%
27 | O=C(Cn1nnc(-c2ccncc2)n1)Nc1ccc2c(c1)CCC2 | 12%
28 | C=C(C)C(=O)N1CC2(CC(c3cccc(NC(=O)CC(c4ccccc4)c4ccccc4)c3)=NO2)C[C@H]1C(N)=O (some centres unmarked) | 0.22%
29 | CCOP(=O)(OCC)/C(C#N)=C/c1ccc(-c2ccc(F)cc2F)o1 | 5.5%
30 | COc1ccc(Cn2c(-c3ccc(OC)cc3)nc3ccccc32)cc1 | -36.9%
31 | N#Cc1cccc(NC(=O)Cc2ccccc2)c1 | 13.6%
32 | Cc1ccc(C)c(S(=O)(=O)N2CCCC2CNC(=O)C(=O)NCc2ccccc2C)c1 (centres unmarked) | -24.5%
33 | COc1cc(/C=N/Nc2ccccn2)ccc1OCC(C)C | 27.5%
34 | C=C1c2cc(CC)ccc2NC(=O)N1c1ccc(C)cc1 | 8.71%
35 | CN1C(=O)/C(=C\C=C2/CCCN2C)N(C)C1=S | -1.13%
36 | O=C(COc1cccc(C(F)(F)F)c1)Nc1ccc(S(=O)(=O)N2CCCCC2)cc1 | -20.6%
37 | Cn1c(=O)c2ccccc2n(CC(=O)N2CCCc3ccccc32)c1=O | 3.17%
38 | CN(C)S(=O)(=O)c1cccc(C(=O)N2CCc3ccccc32)c1 | -8.42%

Row | SMILES | hERG current change (%, negative = inhibition) at 10uM
39 | COc1ccc(Nc2ccc([N+](=O)[O-])cn2)cc1 | 8.41%
40 | CC(=O)N1CCN(C(=O)c2ccc3c(c2)S(=O)(=O)c2ccccc2C3=O)CC1 | 16.1%
41 | O=C(C1CCCN(S(=O)(=O)c2ccc(Cl)cc2)C1)N1CCCC1 (centres unmarked) | -19%
42 | CCC(C)(C)n1nnnc1C(c1ccc(OC)c(OC)c1)N1CCN(c2ccc(F)cc2)CC1.Cl (centres unmarked) | -72.9%
43 | Nc1c(CO)nnn1-c1ccccc1 | 4.7%
44 | O=S(=O)(NC1CC1)c1ccccc1 | 19.6%
45 | O=C1C(=O)N2C(=C1C(=O)N1CCCCCC1)c1ccccc1CC21CCCC1 | 24.4%
46 | CCCOC(=O)c1cc2ccccc2oc1=O | -5.37%
47 | O=C(O)c1ccc(COCC(F)(F)F)cc1 | 1.12%
48 | CC(C)c1ccc(N(CC(=O)Nc2ccc(S(=O)(=O)N3CCOCC3)cc2)S(C)(=O)=O)cc1 | 5.99%
49 | COc1ccc(CNc2nc3c(c(=O)n(Cc4ccc(F)cc4)c(=O)n3C)n2C)cc1 | -17.5%
50 | COc1ccc(CCNC(=O)C2CC(=O)N(C3CCCCCCC3)C2)cc1OC (centres unmarked) | -9.32%
51 | Cc1ccc(Cn2c(CCNc3nc(-c4ccc(Cl)c([N+](=O)[O-])c4)cs3)nc3cc(C(=O)NCCCO)ccc32)cc1 | 12.6%
52 | CN1C(=O)c2ccc(N3CCCC3)cc2C1=O | 9.87%
53 | CCC[N+]1(CC#CC(O)(c2ccccc2)C2CCCCC2)CCCCC1.[Br-] (centres unmarked) | 12.1%
54 | Cc1ccc(Cc2cnc(NC(=O)/C(C#N)=C/c3ccc(-c4ccccc4[N+](=O)[O-])o3)s2)cc1 | 17.6%
55 | COc1ccc(NC(=O)Nc2cccc(F)c2)c(OC)c1 | 22.5%
56 | COc1ccc(Cl)cc1NC(=O)CN(C)C(=O)c1ccc2c(c1)OCCO2 | 15.7%
